In PubChem BioAssay AID1461 (National Center for Advancing Translational Sciences (NCATS), 2008):
Out of some 220,000 compounds screened, about 2,300 (1%) were called active. Inconclusive means that the source gave no clear call. Such entries were picked first, then a sample of the others. Calls follow the shape of the dose curve; as a rule, active = well fitted inhibition curve with a large enough effect; inconclusive = small, poorly fitted or top-dose-only effect, or effect the other way; inactive = no such curve, though single readings can be large or run the other way. No potency is given beside an inconclusive call; the fits are too rough.

biological target: Neuropeptide S receptor (Homo sapiens) (UniProt Q6W5P4); assay: qHTS Assay for Antagonists of the Neuropeptide S Receptor: cAMP Signal Transduction; conditions: CHO-NPSR cells, cAMP TR-FRET, antagonist mode; activity change, negative = inhibition: at 38.3 µM (top of the series) unless noted; also: nearly all actives have a fitted effect of over 50% in size
UniProt Q6W5P4, sequence (Q6W5P4 whole entry, looked up): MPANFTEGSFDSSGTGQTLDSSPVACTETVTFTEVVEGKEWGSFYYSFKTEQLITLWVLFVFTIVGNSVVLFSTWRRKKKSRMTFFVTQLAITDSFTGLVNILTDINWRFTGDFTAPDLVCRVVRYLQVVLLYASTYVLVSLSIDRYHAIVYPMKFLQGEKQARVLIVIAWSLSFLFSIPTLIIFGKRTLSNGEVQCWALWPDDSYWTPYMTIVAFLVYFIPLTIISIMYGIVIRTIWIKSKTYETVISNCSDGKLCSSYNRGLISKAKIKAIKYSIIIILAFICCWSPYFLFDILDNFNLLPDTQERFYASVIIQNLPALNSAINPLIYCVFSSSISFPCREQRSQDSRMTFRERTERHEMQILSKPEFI
% is scaled to controls: 0 for no effect and ±100 for the full control effect; potency is read from the fitted curve at half-maximal effect; tags tell the direction and shape of the fitted curve.

| Structure (SMILES) | Potency | activity change, negative = inhibition |
| --- | --- | --- |
| Cc1ccc(S(=O)(=O)N2CCCCC2)cc1NC(=S)NC(=O)c1ccco1 | inconclusive [inhibitor, single point] | – |
| COc1c(C(=O)NNC(=O)c2ccccc2Cl)csc1Br | – | inactive: -3.55% [at 7.67 µM] |
| Cc1cc(-c2nc(C)c(C(=O)NN)s2)no1 | inactive | – |
| O=C(N/N=C/c1cc(Br)ccc1O)c1cccc(N2CCCC2=O)c1 | inactive | – |
| O=C(N=Nc1c(O)n(C2OC(=O)c3ccccc32)c2ccccc12)c1ccc(O)cc1 (stereo not given) | inconclusive [inhibitor, partial curve] | – |
| Cc1cc(/C=C2\SC(=S)NC2=O)c(C)n1-c1ccccc1 | inconclusive [activator, partial curve] | – |
| CN(C)c1ccc(C(=O)Nc2nc3c(s2)CCCC3)cc1 | inactive | – |
| CCSc1nc2c(c(=O)n1-c1ccc(F)cc1)SCC2 | inconclusive [activator, partial curve] | – |
| O=C(O)Cc1cn(Cc2ccc(F)cc2)c2ccccc12 | inactive | – |
| CC(C)Cc1nc2sc3c(SCC(N)=O)ncnc3c2c2c1CCC2 | inconclusive [activator, partial curve] | – |
| Cc1ccc(Nc2cc(C)nc(-c3ccccc3O)n2)cc1 | inconclusive [inhibitor, single point] | – |
| Cc1ccc2nc(/C(C#N)=C\c3cc(O)ccc3[N+](=O)[O-])[nH]c2c1 | inactive | – |
| CCN1C(=O)C2(C(C(=O)c3cc4ccccc4o3)=C(O)C(=O)N2CCCN(C)C)c2ccccc21 (stereo not given) | inconclusive [activator, partial curve] | – |
| CC1=C(C(=O)Nc2ccccc2)C(c2ccco2)C(C#N)=C(SCC(=O)OC(C)C)N1 (stereo not given) | inconclusive [inhibitor, single point] | – |
| Cc1ccc(/C=N/NC(=O)c2cccc(S(=O)(=O)Nc3ccccc3Cl)c2)o1 | inactive | – |
| CC1=C/C(=N\OS(=O)(=O)c2ccccc2)C=CC1=O | inconclusive [inhibitor, single point] | – |
| CC(CNC(=O)C1CCCCC1C(=O)O)c1ccccc1 (stereo not given) | inactive | – |
| CC1CCN(CC(CS(=O)(=O)c2ccc([N+](=O)[O-])cc2)N2CCC(C)CC2)CC1 (stereo not given) | inconclusive [inhibitor, single point] | – |
| Cc1[nH]c2ccccc2c1/C=N/NC(=S)NCc1ccccc1 | inactive | – |
| N#CC1=C(N)OC2=C(CC/C2=C\c2ccccc2Cl)C1c1ccccc1Cl (stereo not given) | inconclusive [inhibitor, single point] | – |
| C=CCn1c(N)c(C(=O)Nc2ccccc2)c2nc3ccccc3nc21 | inconclusive [inhibitor, single point] | – |
| CC(C)(C)c1ccc(C(=O)N2CCC(=O)N(C(COCc3ccccc3)Cc3ccccc3)CC2)cc1 (stereo not given) | inconclusive [inhibitor, single point] | – |
| Cc1ccccc1C(CC(=O)c1cccs1)C(C#N)C#N (stereo not given) | inconclusive [inhibitor, single point] | – |
| O=C(CN(Cc1cccs1)S(=O)(=O)c1ccc(S(=O)(=O)N2CCCCC2)cc1)Nc1ccccc1 | inactive | – |

| Structure (SMILES) | Potency | activity change, negative = inhibition |
| --- | --- | --- |
| COc1ccc2nc3cc(Cl)ccc3c(Nc3cc(C(C)C)c(O)cc3C)c2c1 | inconclusive [activator, partial curve] | – |
| Cc1cccc(-n2nnnc2SCC(=O)NCCN2C(=O)CSC2=O)c1 | inactive | – |
| Cc1ccc(C(=O)CSc2nnc(-c3ccccc3)n2-c2ccccc2)o1 | inactive | – |
| CCOc1ccccc1NC(=O)CN(c1ccc(C)cc1)S(=O)(=O)c1c(C)n[nH]c1C | inconclusive [inhibitor, single point] | – |
| Cc1ccc(S(=O)(=O)N2CN(Cc3ccco3)c3nc4ccccc4nc32)cc1 | inconclusive [inhibitor, single point] | – |
| O=[N+]([O-])c1cccc2ccc(/C=C/c3ccc(Cl)cc3)nc12 | inconclusive [inhibitor, partial curve] | – |
| CC(=O)C1=C(C)NC(SCC(=O)c2ccc(Cl)cc2)=C(C#N)C1c1ccco1 (stereo not given) | inconclusive [inhibitor, single point] | – |
| COc1ccc(-c2cc(C(F)(F)F)n3ncc(C(=O)N4CCc5ccccc5C4)c3n2)cc1 | inconclusive [activator, single point] | – |
| c1ccc(-c2nc3ccccn3c2NCc2ccc3c(c2)OCO3)cc1 | inactive | – |
| Oc1cc(O)c2c(c1)O[C@H](c1ccc(O)c(O)c1)[C@@H](O)C2 | inconclusive [inhibitor, single point] | – |
| CC(C)(C)c1cc(NCc2ccccn2)n2ncc(-c3ccccc3)c2n1 | inconclusive [activator, partial curve] | – |
| O=C1/C(=C\c2ccco2)SC(=S)N1c1ccc(O)cc1 | inactive | – |
| O=C(CSCc1ccco1)Nc1cc(C(F)(F)F)ccc1N1CCOCC1 | inconclusive [inhibitor, single point] | – |
| COC(=O)c1ccc(C)c(NS(=O)(=O)c2ccc(OC)cc2)c1 | inconclusive [activator, partial curve] | – |
| O=P(CCCCCCCCCP(=O)(c1ccccc1)c1ccccc1)(c1ccccc1)c1ccccc1 | active: 12.6 µM | – |
| O=C(COC(=O)Cn1[nH]c(=O)c2ccccc2c1=O)Nc1ccc2c(c1)OCO2 | inconclusive [inhibitor, single point] | – |
| COc1cc2c(cc1OC)CN(CC(=O)NC(=O)NCc1ccccc1)CC2 | inactive | – |
| O=C(CC(Nc1ccccc1)c1ccc(F)cc1)c1ccccc1 (stereo not given) | inconclusive [inhibitor, single point] | – |
| O=S(=O)(c1cccs1)N1CN(C2CCCCC2)c2nc3ccccc3nc21 | inconclusive [activator, partial curve] | – |
| CCCN1/C(=C2/SC(=S)N(CC)C2=O)C=Cc2ccccc21 | inconclusive [inhibitor, full curve, poor fit] | – |
| Cc1ccccc1S(=O)(=O)N(CC(O)CN1C(=O)NC(C)(C)C1=O)c1ccccc1 (stereo not given) | inactive | – |
| O=C1C(Cl)=C(N2CCN(Cc3ccccc3)CC2)C(=O)N1Cc1ccccc1 | inconclusive [inhibitor, partial curve] | – |
| COc1cccc(/C=C/C(=O)c2ccc(NS(=O)(=O)c3ccc(C)cc3)cc2)c1 | inconclusive [inhibitor, single point] | – |
| Nc1nonc1-c1noc(-c2ccc(Br)o2)n1 | inconclusive [inhibitor, partial curve] | – |

| Structure (SMILES) | Potency | activity change, negative = inhibition |
| --- | --- | --- |
| O=C(CN1CCCc2ccccc21)N/N=C/c1ccc(O)cc1O | inactive | – |
| CC/C(=N\Nc1ccccc1[N+](=O)[O-])c1ccc(O)cc1 | inactive | – |
| O=C(c1ccc(S(=O)(=O)N2CCOCC2)cc1)N1CCN(c2cccc(Cl)c2)CC1 | inconclusive [inhibitor, single point] | – |
| CCSc1nnc(-c2cccc(S(=O)(=O)N(C)C)c2)n1-c1cc(OC)ccc1OC | inconclusive [inhibitor, full curve, poor fit] | – |
| O=c1oc(-c2ccco2)nc2ccccc12 | inconclusive [inhibitor, partial curve, poor fit] | – |
| COc1ccc(-c2nnc(SCc3ncc(-c4ccccc4)o3)o2)cc1 | inconclusive [inhibitor, single point] | – |
| COc1ccc(-c2noc(-c3ccc(C)cc3)n2)cc1 | inconclusive [inhibitor, partial curve] | – |
| O=C(CSc1nc2ccc([N+](=O)[O-])cc2[nH]1)c1ccc2ccccc2c1 | inconclusive [inhibitor, single point] | – |
| CCCN(CC1CC1)C(=O)COC(=O)c1[nH]c(C)c(C(=O)OCC)c1C | inconclusive [inhibitor, partial curve, poor fit] | – |
| COc1ccc2cc(CN(CCc3ccccc3)Cc3nnnn3Cc3ccco3)c(=O)[nH]c2c1 | inconclusive [inhibitor, partial curve] | – |
| Cc1nc(NC(=O)c2oc3ccccc3c2C)sc1C(=O)N(C)C | inactive | – |
| COc1ccc(OC)c(C(c2nnnn2CCC(C)C)N2CCN(C(=O)c3ccco3)CC2)c1 (stereo not given) | inconclusive [inhibitor, single point] | – |
| Cn1c(/C(C#N)=C/Nc2ccccn2)nc2ccccc21 | inconclusive [inhibitor, partial curve, poor fit] | – |
| COc1cc2c(C#N)c(N3CCN(c4ccccc4OC)CC3)nc(N)c2c(N)n1 | inactive | – |
| Cn1c(N)c(Sc2ccc(F)cc2)c(=O)n(C)c1=O | inactive | – |
| O=C(NCCCCNC(=O)c1ccc(Br)s1)c1ccc(Br)s1 | inconclusive [inhibitor, single point] | – |
| Cc1ccccc1-n1nc(CSc2nc3ccccc3[nH]2)c(-c2ccccc2)c1N | inconclusive [inhibitor, partial curve, poor fit] | – |
| O=C(Nc1ccc(Cl)cc1)N1CCSC1=NCc1ccccc1 | inactive | – |
| Cc1ccc(C(=O)Nc2ccccc2N2CCN(C(=O)C(C)C)CC2)cc1 | inconclusive [inhibitor, single point] | – |
| Cc1nn(Cc2nc(-c3cccs3)no2)c(C)c1Br | inactive | – |
| CCN(CC)CCOC(=O)C1(C2CCCCC2)CCCCC1 | inconclusive [inhibitor, single point] | – |
| COc1ccc2c(=O)c3c(=O)n(Cc4ccco4)c(-c4ccc(C)cc4)nc3oc2c1 | inconclusive [inhibitor, partial curve] | – |
